Measured values as given in the supplement of paper PMC8728848.
This is one part of the list.

What was measured:
Experiment in all cases: glycan array binding signal (z-score within array); higher = stronger binding
Settings in all cases: glycan notation: IUPAC condensed, linker removed
[1] = molecular target: Fuc(a1-2)Gal6S(b1-3)GlcNAc
In short: (§1)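 From the Consortium for Functional Glycomics database, 3228 arrays were curated, keeping only those whose protein sequence was available. Binding is given as a within-array Z-score averaged across arrays sharing a protein sequence and across linkers. Negative Z-scores can be read as non-binding.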

[2] = molecular target: Fuc(a1-2)Gal6S(b1-3)GlcNAc6S
In short: as §1

Fuc(a1-2)Gal6S(b1-4)Glc = molecular target: Fuc(a1-2)Gal6S(b1-4)Glc
In short: as §1

[3] = molecular target: Fuc(a1-2)Gal6S(b1-4)Glc6S
In short: as §1

Fuc(a1-2)[Gal(a1-3)]Gal = molecular target: Fuc(a1-2)[Gal(a1-3)]Gal
In short: as §1

[4] = molecular target: Fuc(a1-2)[Gal(a1-3)]Gal(b1-3)GalNAc
In short: as §1

[5] = molecular target: Fuc(a1-2)[Gal(a1-3)]Gal(b1-3)GalNAc(b1-3)Gal(a1-4)Gal(b1-4)Glc
In short: as §1

[6] = molecular target: Fuc(a1-2)[Gal(a1-3)]Gal(b1-3)GlcNAc
In short: as §1

[7] = molecular target: Fuc(a1-2)[Gal(a1-3)]Gal(b1-3)GlcNAc(b1-2)Man(a1-3)[Fuc(a1-2)[Gal(a1-3)]Gal(b1-3)GlcNAc(b1-2)Man(a1-6)]Man(b1-4)GlcNAc(b1-4)GlcNAc
In short: as §1

[8] = molecular target: Fuc(a1-2)[Gal(a1-3)]Gal(b1-3)GlcNAc(b1-2)Man(a1-3)[Fuc(a1-2)[Gal(a1-3)]Gal(b1-3)GlcNAc(b1-2)Man(a1-6)]Man(b1-4)GlcNAc(b1-4)[Fuc(a1-6)]GlcNAc
In short: as §1

[9] = molecular target: Fuc(a1-2)[Gal(a1-3)]Gal(b1-3)GlcNAc(b1-3)GalNAc
In short: as §1

[10] = molecular target: Fuc(a1-2)[Gal(a1-3)]Gal(b1-3)GlcNAc(b1-6)GalNAc
In short: as §1

[11] = molecular target: Fuc(a1-2)[Gal(a1-3)]Gal(b1-4)Glc
In short: as §1

[12] = molecular target: Fuc(a1-2)[Gal(a1-3)]Gal(b1-4)GlcNAc
In short: as §1

[13] = molecular target: Fuc(a1-2)[Gal(a1-3)]Gal(b1-4)GlcNAc(b1-2)Man
In short: as §1

[14] = molecular target: Fuc(a1-2)[Gal(a1-3)]Gal(b1-4)GlcNAc(b1-2)Man(a1-3)[Fuc(a1-2)[Gal(a1-3)]Gal(b1-4)GlcNAc(b1-2)Man(a1-6)]Man(b1-4)GlcNAc(b1-4)GlcNAc
In short: as §1

[15] = molecular target: Fuc(a1-2)[Gal(a1-3)]Gal(b1-4)GlcNAc(b1-2)Man(a1-3)[Fuc(a1-2)[Gal(a1-3)]Gal(b1-4)GlcNAc(b1-2)Man(a1-6)]Man(b1-4)GlcNAc(b1-4)[Fuc(a1-6)]GlcNAc
In short: as §1

[16] = molecular target: Fuc(a1-2)[Gal(a1-3)]Gal(b1-4)GlcNAc(b1-3)GalNAc
In short: as §1

[17] = molecular target: Fuc(a1-2)[Gal(a1-3)]Gal(b1-4)GlcNAc(b1-3)[Fuc(a1-2)[Gal(a1-3)]Gal(b1-4)GlcNAc(b1-6)]GalNAc
In short: as §1

[18] = molecular target: Fuc(a1-2)[Gal(a1-3)]Gal(b1-4)GlcNAc(b1-6)GalNAc
In short: as §1

[19] = molecular target: Fuc(a1-2)[Gal(a1-3)]Gal(b1-4)[Fuc(a1-3)]Glc
In short: as §1

[20] = molecular target: Fuc(a1-2)[Gal(a1-3)]Gal(b1-4)[Fuc(a1-3)]GlcNAc
In short: as §1

[21] = molecular target: Fuc(a1-2)[Gal(a1-3)]Gal(b1-4)[Fuc(a1-3)]GlcNAc(b1-3)GalNAc
In short: as §1

[22] = molecular target: Fuc(a1-2)[Gal(a1-4)]Gal(b1-4)GlcNAc
In short: as §1

[23] = molecular target: Fuc(a1-2)[GalNAc(a1-3)]Gal
In short: as §1

[24] = molecular target: Fuc(a1-2)[GalNAc(a1-3)]Gal(b1-3)GalNAc(a1-3)[Fuc(a1-2)]Gal(b1-4)GlcNAc
In short: as §1

[25] = molecular target: Fuc(a1-2)[GalNAc(a1-3)]Gal(b1-3)GalNAc(b1-3)Gal(a1-4)Gal(b1-4)Glc
In short: as §1

[26] = molecular target: Fuc(a1-2)[GalNAc(a1-3)]Gal(b1-3)GlcNAc
In short: as §1

[27] = molecular target: Fuc(a1-2)[GalNAc(a1-3)]Gal(b1-3)GlcNAc(b1-2)Man(a1-3)[Fuc(a1-2)[GalNAc(a1-3)]Gal(b1-3)GlcNAc(b1-2)Man(a1-6)]Man(b1-4)GlcNAc(b1-4)GlcNAc
In short: as §1

[28] = molecular target: Fuc(a1-2)[GalNAc(a1-3)]Gal(b1-3)GlcNAc(b1-2)Man(a1-3)[Fuc(a1-2)[GalNAc(a1-3)]Gal(b1-3)GlcNAc(b1-2)Man(a1-6)]Man(b1-4)GlcNAc(b1-4)[Fuc(a1-6)]GlcNAc
In short: as §1

[29] = molecular target: Fuc(a1-2)[GalNAc(a1-3)]Gal(b1-3)GlcNAc(b1-3)GalNAc
In short: as §1

[30] = molecular target: Fuc(a1-2)[GalNAc(a1-3)]Gal(b1-3)GlcNAc(b1-6)GalNAc
In short: as §1

[31] = molecular target: Fuc(a1-2)[GalNAc(a1-3)]Gal(b1-4)Glc
In short: as §1

[32] = molecular target: Fuc(a1-2)[GalNAc(a1-3)]Gal(b1-4)GlcNAc
In short: as §1

[33] = molecular target: Fuc(a1-2)[GalNAc(a1-3)]Gal(b1-4)GlcNAc(b1-2)Man
In short: as §1

[34] = molecular target: Fuc(a1-2)[GalNAc(a1-3)]Gal(b1-4)GlcNAc(b1-2)Man(a1-3)[Fuc(a1-2)[GalNAc(a1-3)]Gal(b1-4)GlcNAc(b1-2)Man(a1-6)]Man(b1-4)GlcNAc(b1-4)GlcNAc
In short: as §1

[35] = molecular target: Fuc(a1-2)[GalNAc(a1-3)]Gal(b1-4)GlcNAc(b1-2)Man(a1-3)[Fuc(a1-2)[GalNAc(a1-3)]Gal(b1-4)GlcNAc(b1-2)Man(a1-6)]Man(b1-4)GlcNAc(b1-4)[Fuc(a1-6)]GlcNAc
In short: as §1

[36] = molecular target: Fuc(a1-2)[GalNAc(a1-3)]Gal(b1-4)GlcNAc(b1-3)Gal(b1-4)GlcNAc
In short: as §1

[37] = molecular target: Fuc(a1-2)[GalNAc(a1-3)]Gal(b1-4)GlcNAc(b1-3)Gal(b1-4)GlcNAc(b1-3)Gal(b1-4)GlcNAc
In short: as §1

[38] = molecular target: Fuc(a1-2)[GalNAc(a1-3)]Gal(b1-4)GlcNAc(b1-3)GalNAc
In short: as §1

[39] = molecular target: Fuc(a1-2)[GalNAc(a1-3)]Gal(b1-4)GlcNAc(b1-3)[Fuc(a1-2)[GalNAc(a1-3)]Gal(b1-4)GlcNAc(b1-6)]GalNAc
In short: as §1

[40] = molecular target: Fuc(a1-2)[GalNAc(a1-3)]Gal(b1-4)GlcNAc(b1-6)GalNAc
In short: as §1

[41] = molecular target: Fuc(a1-2)[GalNAc(a1-3)]Gal(b1-4)[Fuc(a1-3)]GlcNAc
In short: as §1

[42] = molecular target: Fuc(a1-2)[GalNAc(a1-3)]Gal(b1-4)[Fuc(a1-3)]GlcNAc(b1-3)GalNAc
In short: as §1

[43] = molecular target: Fuc(a1-2)[GalNAc(a1-4)]Gal(b1-4)GlcNAc
In short: as §1

B1: Epa1to9 (Candida glabrata) (protein)
chain: MGSSHHHHHHSSGLVPRGSHMTSSNDISLASKDPTTFPLGCSPDITTPKKGLSMELYSYDFRKKGSYPCWDAAYLDPNYPRTGYKSHRLLAKVDGVTGNINFYYHATKGCTPQLGHLPASYNYPKPLTMTNFTMLLYGYFRPKVTGFHTFTISADDLLFVNFGAGNAFDCCRRDSSADHFGNYQAYAIWGSKTAKDELTVHLDAGVYYPIRLFYNNRDYHGALSFTFKTESNENTVSDFSEYFFSLDDTEEGCPGLISYD
glycan array binding signal (z-score) [1]: 0.035 | glycan array binding signal (z-score) [2]: -0.224 | glycan array binding signal (z-score) (Fuc(a1-2)Gal6S(b1-4)Glc): -0.208 | glycan array binding signal (z-score) [3]: -0.066 | glycan array binding signal (z-score) (Fuc(a1-2)[Gal(a1-3)]Gal): 0.426 | glycan array binding signal (z-score) [4]: -0.126 | glycan array binding signal (z-score) [5]: -0.324 | glycan array binding signal (z-score) [6]: -0.152 | glycan array binding signal (z-score) [7]: -0.266 | glycan array binding signal (z-score) [8]: -0.304 | glycan array binding signal (z-score) [9]: -0.268 | glycan array binding signal (z-score) [10]: -0.284 | glycan array binding signal (z-score) [11]: -0.136 | glycan array binding signal (z-score) [12]: 0.221 | glycan array binding signal (z-score) [13]: -0.048 | glycan array binding signal (z-score) [14]: -0.278 | glycan array binding signal (z-score) [15]: -0.264 | glycan array binding signal (z-score) [16]: -0.194 | glycan array binding signal (z-score) [17]: -0.159 | glycan array binding signal (z-score) [18]: -0.328 | glycan array binding signal (z-score) [19]: -0.269 | glycan array binding signal (z-score) [20]: -0.276 | glycan array binding signal (z-score) [21]: -0.309 | glycan array binding signal (z-score) [22]: 1.18 | glycan array binding signal (z-score) [23]: -0.349 | glycan array binding signal (z-score) [24]: -0.324 | glycan array binding signal (z-score) [25]: -0.349 | glycan array binding signal (z-score) [26]: -0.346 | glycan array binding signal (z-score) [27]: -0.345 | glycan array binding signal (z-score) [28]: -0.354 | glycan array binding signal (z-score) [29]: -0.289 | glycan array binding signal (z-score) [30]: -0.341 | glycan array binding signal (z-score) [31]: -0.351 | glycan array binding signal (z-score) [32]: -0.351 | glycan array binding signal (z-score) [33]: -0.356 | glycan array binding signal (z-score) [34]: -0.318 | glycan array binding signal (z-score) [35]: -0.341 | glycan array binding signal (z-score) [36]: -0.339 | glycan array binding signal (z-score) [37]: -0.296 | glycan array binding signal (z-score) [38]: -0.347 | glycan array binding signal (z-score) [39]: -0.271 | glycan array binding signal (z-score) [40]: -0.266 | glycan array binding signal (z-score) [41]: -0.318 | glycan array binding signal (z-score) [42]: -0.324 | glycan array binding signal (z-score) [43]: -0.347
